Experimental data as given in publication PMC4336329 (PLoS ONE, 2015).
Screen size: about 310,000 compounds; about 2,200 (0.71%) showed an effect of 50% or more. Effects have a minus sign here. The list shows a part of the results.

biological target: human ether-à-go-go-related gene (hERG) potassium channel (human, UniProt Q12809); assay: primary screen, population patch clamp on CHO cells stably expressing hERG
Sequence (Q12809 whole entry, looked up): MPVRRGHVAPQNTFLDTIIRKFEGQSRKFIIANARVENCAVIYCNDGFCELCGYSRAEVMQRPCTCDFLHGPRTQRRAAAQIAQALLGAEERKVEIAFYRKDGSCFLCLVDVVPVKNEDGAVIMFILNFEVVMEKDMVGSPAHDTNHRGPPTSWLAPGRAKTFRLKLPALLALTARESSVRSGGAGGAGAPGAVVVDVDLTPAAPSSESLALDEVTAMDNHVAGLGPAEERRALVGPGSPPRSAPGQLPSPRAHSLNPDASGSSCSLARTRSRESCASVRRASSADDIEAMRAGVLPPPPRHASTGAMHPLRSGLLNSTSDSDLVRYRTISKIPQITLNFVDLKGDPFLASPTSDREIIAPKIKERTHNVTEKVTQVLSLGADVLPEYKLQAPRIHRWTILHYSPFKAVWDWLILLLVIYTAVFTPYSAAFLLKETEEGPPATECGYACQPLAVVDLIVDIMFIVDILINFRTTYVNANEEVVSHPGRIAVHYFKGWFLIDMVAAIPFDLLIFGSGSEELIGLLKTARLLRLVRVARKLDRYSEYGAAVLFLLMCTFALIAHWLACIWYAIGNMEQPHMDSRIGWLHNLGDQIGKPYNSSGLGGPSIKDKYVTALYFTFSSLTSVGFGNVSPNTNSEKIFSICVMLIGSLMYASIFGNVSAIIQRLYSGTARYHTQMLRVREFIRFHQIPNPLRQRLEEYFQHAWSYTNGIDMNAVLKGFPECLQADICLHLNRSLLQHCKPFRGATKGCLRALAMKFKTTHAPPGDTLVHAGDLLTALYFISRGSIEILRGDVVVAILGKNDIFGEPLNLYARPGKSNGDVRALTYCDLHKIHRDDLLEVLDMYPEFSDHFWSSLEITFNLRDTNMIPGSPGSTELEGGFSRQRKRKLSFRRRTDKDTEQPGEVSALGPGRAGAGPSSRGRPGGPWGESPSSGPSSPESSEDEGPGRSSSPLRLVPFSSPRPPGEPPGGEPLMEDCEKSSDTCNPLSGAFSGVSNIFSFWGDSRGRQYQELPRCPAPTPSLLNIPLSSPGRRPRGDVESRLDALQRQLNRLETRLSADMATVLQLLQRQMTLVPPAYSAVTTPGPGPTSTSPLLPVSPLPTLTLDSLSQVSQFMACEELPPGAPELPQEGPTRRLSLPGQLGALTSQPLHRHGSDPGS

SMILES | hERG current change (%, negative = inhibition) at 1uM
Cc1cc(=O)oc(C)c1C(=O)OCC(=O)c1ccc2ccccc2c1 | 14.7%
O=c1[nH]c(CSc2ncc(C(F)(F)F)cc2Cl)nc2cc(C(F)(F)F)ccc12 | 3.42%
CCOc1ccc(/C(C)=N\NC(=O)Cc2ccccc2)cc1 | 0.939%
COC(=O)C1=C(C)NC(C)=C(C(=O)OC)C1/C=C/c1ccccc1 | -8.65%
CC(C)Cc1nc2oc3c(NCc4cccnc4)ncnc3c2c2c1CCC2 | -12.8%
CCn1ccc(C(=O)NC2=NCCS2)n1 | 0.803%
CCCCc1cc(=O)oc2c(CN3CCCC3)c(O)ccc12 | -10.5%
O=C(NCc1ccccc1Cl)C1CCC(=O)N(C2CC2)C1 (stereo not drawn) | 17.1%
CN(C(=O)c1cccs1)C1(C)CCS(=O)(=O)C1 (stereo not drawn) | 13.3%
CCCCNC(=O)COC(=O)c1cc(C)nc2ccccc12 | 2.17%
CCCCCNC(=O)c1ccc2c(=O)n(CC3CCCO3)c(=O)[nH]c2c1 (stereo not drawn) | 16%
COc1ccc(C2CC(c3ccc4ccccc4c3)=NN2C(=O)CSc2ncccn2)cc1 (stereo not drawn) | 12.6%
CCOC(=O)N1CCC(N2C(=O)c3ccccc3C2Nc2ccc(Cl)cn2)CC1 (stereo not drawn) | -1.08%
CCc1ccc(OCC(O)Cn2c(N3CCCCC3)nc3c2c(=O)[nH]c(=O)n3C)cc1 (stereo not drawn) | 2.64%
O=C(C1CCCO1)N1CCN(C(=S)Nc2ccccc2Cl)CC1 (stereo not drawn) | 2.65%
NC(=O)C1CCN(S(=O)(=O)c2ccccc2[N+](=O)[O-])CC1 | 12.4%
CCCc1cc(=O)[nH]c2nnc(SCC(=O)Nc3ccc(NC(C)=O)cc3)n12 | 10%
COc1ccc(C)cc1N(C(=O)CNC(=O)c1ccco1)C(C(=O)NCC1CCCO1)c1ccccc1 (stereo not drawn) | 14.8%
O=C(NCc1cccnc1)c1sc2cc(Cl)ccc2c1Cl | -12.7%
Cc1noc(C)c1COC(=O)c1ccc2c(c1)S(=O)(=O)c1ccccc1C2=O | 9.57%
CCC1=Nc2cc(C(=O)NCCCN3CCOCC3)ccc2Sc2ccc(Br)cc21 | 15.9%
Cc1ccc(S(=O)(=O)N(C)c2ccc(NS(C)(=O)=O)cc2)cc1 | -21%
CC1(C)Cc2nc3oc4c(=O)n(CC(=O)Nc5cccc(Cl)c5)cnc4c3cc2CO1 | 14.9%

SMILES | hERG current change (%, negative = inhibition) at 1uM
COc1cccc(C2CC(c3c(Cl)cccc3Cl)n3nc(N)nc3N2)c1 (stereo not drawn) | 13.1%
Cn1[nH]c(C(F)(F)F)c(C=NCc2ccc(Cl)cc2)c1=O | 7.93%
Cc1ccccc1/C=c1\s/c(=C\C(=O)C(C)(C)C)[nH]c1=O | 9.43%
C/C(=N/N=C1/NC(=O)CC(C(=O)O)S1)c1ccccc1 (stereo not drawn) | 10.8%
CN(CCO)C1=NS(=O)(=O)c2cc([N+](=O)[O-])ccc21 | 13%
CC(C)CC(=O)Nc1cccc2c1C(=O)N(c1ccccc1)C2=O | 6.54%
Oc1c(C(c2cccs2)N2CCN(c3cccc(Cl)c3)CC2)sc2ncnn12 (stereo not drawn) | 15.2%
O=C(CSc1ncccn1)N1CCCc2ccccc21 | 10.8%
COc1ccc(C(=O)NNC2=NS(=O)(=O)c3ccccc32)cc1OC | 15.5%
Cc1nnc(SCC(=O)Nc2ccccc2C(=O)NC2CC2)s1 | 7.26%
O=c1cc(CSc2n[nH]c(-c3ccncc3)n2)nc2sccn12 | 11.8%
CCN(CC)S(=O)(=O)N1CCC(C(=O)N2CCC3(CC2)OCCO3)CC1 | 4.47%
Cc1nnc(C)c2c(C)n(-c3cccc4cccnc34)c(C)c12 | 4.64%
O=C(N=C1SC2CS(=O)(=O)CC2N1c1ccc(Cl)c(Cl)c1)C1CCCO1 (stereo not drawn) | 19.6%
COc1ccc(C(=O)Sc2ccc(Cl)cc2)cc1OC | 4.71%
O=C(O)c1cccc2c(-c3ccccc3)c(-c3ccccc3)[nH]c12 | 13.1%
COc1cccc(/C=N\NC(=O)C2C(=O)NCC2c2ccccc2)c1O (stereo not drawn) | -3.19%
O=C(C1CCN(S(=O)(=O)c2ccccc2)CC1)N1CCN(c2ccccc2F)CC1 | 0.218%
O=C(Nc1ccccc1C(=O)O)c1cccc(NC(=O)c2ccccc2Cl)c1 | 19.2%
Cc1c(C(=O)OCC(=O)N(C)Cc2ccc(Cl)cc2)oc2ccccc12 | 1.32%
CCOCCn1c(=O)c2c(nc3n2CC(C)CN3CCc2ccccc2)n(C)c1=O (stereo not drawn) | -58.9%
O=C(OCc1nnc(-c2ccccc2)o1)c1ccc2c(c1)C(=O)N(CCc1ccccc1)C2=O | 12.3%
